PubChem BioAssay AID1508642 (National Center for Advancing Translational Sciences (NCATS), 2021)
In all, about 43,000 compounds went through this assay and about 200 (0.47%) were called active. Not shown: some 12% with an inconclusive outcome. Calls come from the whole dose curve; as a rule, active = well fitted cell-killing curve with a large enough effect; inconclusive = small, poorly fitted or top-dose-only effect, or effect the other way; inactive = flat fitted curve, though single readings scatter. This is one part of the list.

Assay: Cell viability qHTS assay in S16 Pmp22-F2sN cells; note: nearly all actives have a fitted effect of over 65% in size
Settings: S16 Pmp22-F2sN Schwann cells (luciferase reporters placed in the Pmp22 gene) viability, CellTiter-Glo, 24 h; series mostly up to 57.5 µM; activity change, negative = cytotoxicity: at the top concentration
How it was run: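 Luminescence from CellTiter-Glo, read by CCD camera after a 15 min room-temperature incubation, served as the viability signal. Reporter Schwann cells (S16 Pmp22-F2sN) had been treated with pin-transferred compounds for 24 h at 37C.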
% is set by controls: 0 for no effect and ±100 for the full control effect; potency is the fitted concentration of half-maximal effect.

Structure (SMILES) | activity change, negative = cytotoxicity | Potency
COc1ccc(CCNC(=O)c2cnn(-c3ccc(F)cc3)c2C2CCN(C(=O)OC(C)(C)C)CC2)cc1OC | inactive: 4.97% | –
O=C(CN1C(=O)C2(SCC(=O)N2c2ccc(F)c(F)c2)c2ccccc21)NCCc1ccccc1 (stereo not given) | inactive: -4.12% | –
CCOc1cc(C(c2c(C)[nH]n(-c3ccccc3)c2=O)c2c(C)[nH]n(-c3ccccc3)c2=O)ccc1O | inactive: -3.28% | –
COc1ccc(-c2noc(N3CCC(C(=O)Nc4cccc(C)c4C)CC3)n2)cc1 | inactive: -3.61% | –
CCOc1cc(CNC(=O)c2cc(-c3ccccc3)n[nH]2)cc(OCC)c1OCC | inactive: -14% | –
O=C(NCCc1ccc(F)cc1)C(=O)NCC(c1ccco1)S(=O)(=O)c1ccccc1 (stereo not given) | inactive: 8.42% | –
CCOc1ccc(/C=C/c2nc(C#N)c(N3CCN(CC)CC3)o2)cc1 | inactive: -2.74% | –
Cc1[nH]c2ccc(C(=O)N3CCN(c4ccccc4F)CC3)cc2c1C | inactive: -9.93% | –
CCN(CC)S(=O)(=O)c1ccc(NC(=O)Cn2ncc3c([nH]c4ccccc43)c2=O)cc1 | inactive: -9.96% | –
CC(Oc1ccccc1)C(=O)Nc1ccc(C(=O)OCc2cc(=O)n3nc(C(C)C)sc3n2)cc1 (stereo not given) | inactive: -0.128% | –
Cc1nc(SCC(=O)N2CCN(c3ccccc3)CC2)[nH]c(=O)c1C | inactive: -1.57% | –
Fc1ccccc1Nc1c2c(nc3ccccc13)CCC2 | inactive: -4.03% | –
COc1cccc2cc(C(=O)N3CCN(c4cc(C)ccc4C)CC3)c(=O)oc12 | inactive: -0.544% | –
CCc1ccccc1NC(=O)CN(C)S(=O)(=O)c1cccc2nsnc12 | inactive: -5.26% | –
COc1ccc(OC)c(NC(=O)c2c(NCc3cccs3)sc3c2CCCCC3)c1 | inactive: -8.89% | –
CCN(CC)c1ccc(NC(=O)c2c(C)nn(-c3ccc(F)cc3)c2-n2cccc2)c(C)c1 | inactive: -0.318% | –
COc1ccc(-c2ccc(NS(=O)(=O)c3ccc(NC(C)=O)cc3)cc2)nn1 | inactive: -0.32% | –
Cc1ccc(CNC(=O)CCS(=O)(=O)c2cc3c4c(c2)CCN4C(=O)CC3)cc1 | inactive: 24% | –
CCc1ccc(NC(=O)CSc2nc3c([nH]c4ccccc43)c(=O)n2-c2ccc(C)cc2)cc1 | inactive: 3.55% | –
COc1cccc(CN(C(=O)COc2ccc(Cl)c(C)c2)C2CCS(=O)(=O)C2)c1 (stereo not given) | inactive: 0.698% | –
Cc1ccc(C2CC(=O)n3nc(-c4ccc(Cl)cc4)nc3S2)cc1 (stereo not given) | inactive: 2.4% | –
Cc1ccc(Sc2ccc(N3CCC(C(=O)Nc4cc(C)cc(C)c4)CC3)nn2)cc1 | inactive: 1.75% | –
Cc1c(Cl)cccc1-n1ncc(C(=O)NCCN2CCN(C)CC2)c1C1CCN(C(=O)OC(C)(C)C)CC1 | inactive: 4.76% | –
O=C(Cn1c(=O)n(-c2ccccc2)c(=O)c2c3c(sc21)CCC3)c1ccc(F)cc1 | inactive: 10.6% | –

Structure (SMILES) | activity change, negative = cytotoxicity | Potency
O=C(NCc1ccccc1)c1ccc2c(c1)N(Cc1ccccc1F)C(=O)c1ccccc1S2=O (stereo not given) | inactive: -21.3% | –
COc1cccc(CN2C(=O)c3ccccc3Sc3ccc(C(=O)NCc4ccccc4)cc32)c1 | inactive: 18.4% | –
COc1ccccc1C(=O)Nc1c(C(=O)Nc2cc(Cl)ccc2C)sc2nc(C)cc(C)c12 | inactive: -1.43% | –
COc1cccc(N2CCN(C(=O)c3cnc4c(-c5ccccc5)c(C)nn4c3C)CC2)c1 | inactive: -2.34% | –
Cc1ccccc1NC(=O)NCCc1c[nH]c2ccccc12 | inactive: 3.25% | –
O=C(Nc1ccccc1)c1cnc(N2CCCCC2)c2ccccc12 | inactive: -3.08% | –
CCOC(=O)c1scc(-c2ccccc2)c1S(=O)(=O)N1CCN(c2ccc(Cl)cc2)CC1 | inactive: 20.5% | –
Cc1ccc(NC(=O)c2ccc(NC(=O)N3CCSc4ncccc43)cc2)c(Cl)c1 | inactive: 12.2% | –
COc1cccc(C(=O)N(Cc2cccc(F)c2)C2CCS(=O)(=O)C2)c1 (stereo not given) | inactive: 4.27% | –
Cc1ccc2c(c1)N(CC(=O)Nc1ccccc1C(F)(F)F)C(=O)c1cccnc1O2 | inactive: -3.12% | –
COc1ccc(Cn2ccnc2SCC(=O)Nc2ccc3c(c2)OCCO3)cc1 | inactive: 3.96% | –
CCOC(=O)c1c(NC(C)=O)c2c3c(sc2n1Cc1c(C)cc(C)cc1C)CCCC3 | inactive: -23.8% | –
CCOc1ccc(N(CC(=O)NCc2ccc(OC)cc2)S(=O)(=O)c2c(C)[nH]c(=O)[nH]c2=O)cc1 | inactive: 12.5% | –
CCOC(=O)c1cc2c(=O)n3ccccc3nc2n(Cc2ccco2)c1=NC(=O)c1ccc(C(C)(C)C)cc1 | inactive: -17.6% | –
COc1cccc(OC)c1C(=O)Nc1ccc(-c2nc3ncccc3o2)cc1 | inactive: -2.33% | –
Cc1c(Cl)cccc1NC(=O)c1oc2ccc(S(=O)(=O)N3CCCCCC3)cc2c1C | inactive: 4.18% | –
COc1ccc(CCNC(=O)c2cc3c(=O)n4cccc(C)c4nc3n2C)cc1 | inactive: 4.59% | –
Cc1cc(C)cc(-n2ccn(CC(=O)NCCc3ccccc3)c(=O)c2=O)c1 | inactive: -2.1% | –
COc1cc2c(cc1OC)C(COc1ccc3c(C)cc(=O)oc3c1)N(C(=O)Cc1ccc(F)cc1)CC2 (stereo not given) | inactive: -0.0572% | –
CCn1c(=O)c2cc(C(=O)Nc3cccc(C(F)(F)F)c3)sc2c2ccccc21 | inactive: -3.73% | –
COc1ccc(C(=O)Nc2ccc(-c3nc4ncccc4o3)cc2C)cc1Br | inactive: 12.9% | –
CCNC(=O)CCCN1C(=O)CCn2nc(-c3cccn3C)cc21 | inactive: 5.24% | –
Cc1ccc(CNC(=O)CSCc2ccccc2C)cc1 | inactive: 1.54% | –
Cc1ccc2nc(NCc3ccccc3)c3nncn3c2c1 | inactive: 4.19% | –

Structure (SMILES) | activity change, negative = cytotoxicity | Potency
CCn1cc(C(=O)NCCc2ccc(Cl)cc2)c(=O)c2cc(S(=O)(=O)N(C)C3CCCCC3)ccc21 | inactive: 2.16% | –
O=S(=O)(c1ccc(C2CCCCC2)cc1)N1CCN(c2cc(Cl)ccc2Cl)CC1 | inactive: 10.1% | –
CCC(Sc1nc2nccnc2c(=O)n1Cc1ccccc1Cl)C(=O)NC1CCCCC1 (stereo not given) | inactive: -5.05% | –
Fc1ccc(CNCCCSc2nnnn2-c2ccccc2)cc1 | inactive: 1.48% | –
COc1ccc(NC(=O)CSCc2cc(=O)c3cc(C)ccc3[nH]2)cc1 | inactive: 1.86% | –
COc1ccc(CCCc2nnc(SCC(=O)Nc3cc(F)ccc3C)o2)cc1 | inactive: 8% | –
COc1cc(Cl)c(C)cc1NC(=O)CC1Oc2ccccc2NC1=O (stereo not given) | inactive: 11.4% | –
CCOc1ccc(CNC(=O)c2ccc3c(Cl)c4c(nc3c2)CCCC4)cc1 | inactive: 16.6% | –
COc1ccc(Cl)cc1NC(=O)CSc1nc(=O)n(Cc2ccco2)c2c1CCC2 | inactive: -3.55% | –
Cc1ccc(-n2ncc3c(Nc4ccc(Oc5ccccc5)cc4)ncnc32)c(C)c1 | inactive: 0.167% | –
COc1ccc(OC)c(-c2noc(CSc3nnc(-c4ccccc4)n3-c3ccccc3)n2)c1 | inactive: -14.7% | –
Cc1ccc(OCC(=O)Nc2nnc(S(=O)(=O)N3CCc4ccccc43)s2)cc1 | inactive: 4.1% | –
COc1ccc(N2CCN(S(=O)(=O)c3ccc(C4CCCCC4)cc3)CC2)cc1 | inactive: -9.42% | –
CCOC(=O)c1ccccc1NC(=O)c1cn(CC(C)C)c(=O)c2cc(OC)c(OC)cc12 | inactive: 12.1% | –
Cc1nc2ncnn2c(C)c1CCC(=O)N1CCN(c2ccc(F)cc2)CC1 | inactive: 12% | –
Cc1cccc(C(=O)NCCc2nc3ccccc3n2Cc2ccccc2Cl)c1 | inactive: -3.41% | –
Cc1ccc(NC(=O)Nc2nnc(SCC(=O)N3CCCCC3)s2)cc1 | inactive: -18.1% | –
COc1cccc(N2CC(NC(=O)c3cc4ccccc4o3)CC2=O)c1 (stereo not given) | inactive: 3.43% | –
Fc1ccc(-c2noc3ncnc(NCCc4ccc(Cl)cc4)c23)cc1 | inactive: -10.7% | –
CC(C)c1ccc2c(c1)NC(c1ccc(F)cc1)=NC(c1cccs1)=N2 | inactive: -0.964% | –
CC(C)c1noc(-c2ccccc2OCC(=O)Nc2ccc([N+](=O)[O-])cc2)n1 | inactive: 7.45% | –
COc1ccc(OC)c(C2C(C(=O)Nc3ccc(C)cc3C)=C(C)Nc3c(C(=O)Nc4ccc(F)cc4)cnn32)c1 (stereo not given) | inactive: -21.1% | –
CCn1c2c(c(=O)n3ncc(C(=O)N4CCN(c5ccccc5)CC4)c13)CN(Cc1ccc(OC)cc1)CC2 | inactive: -11.5% | –
Cc1cc(=O)n(Cc2cccc(Cl)c2)c2c1c(C)nn2C | inactive: -13.4% | –

Structure (SMILES) | activity change, negative = cytotoxicity | Potency
CCOC(=O)CCc1c(C)nc2c(-c3ccccc3)c(C)[nH]n2c1=O | inactive: 2.76% | –
O=C(CSc1nnc(-c2ccncc2)n1-c1ccccc1)Nc1ccc(F)cc1 | inactive: 8.63% | –
CCOc1ccccc1CNC(=O)CSc1n[nH]c(-c2ccccc2)n1 | inactive: 1.35% | –
COc1cccc(NC(=O)CSc2nc(=O)n(Cc3cccnc3)c3c2CCC3)c1 | inactive: -16% | –
Cc1cccc2c(=O)cc(CSc3ccccc3NC(=O)C(C)C)[nH]c12 | inactive: -12.4% | –
CCCCOc1cccc(C(=O)Nc2sc3c(c2C(=O)OCC)CCCC3)c1 | inactive: 1.62% | –
CCOc1ccc(-n2c(SCc3ccccc3)nc3c([nH]c4ccccc43)c2=O)cc1 | inactive: 2.43% | –
COc1ccc(OCC(=O)Nc2ccc(-c3nc4cc(Cl)ccc4o3)cc2)cc1 | inactive: 6.03% | –
CCOc1ccc(CNC(=O)c2ccc3c(c2)c(C)c(C)n3C)cc1 | inactive: -6.38% | –
CCCN(CCC)C(=O)Cn1c(=O)n(-c2ccc(OC)cc2OC)c(=O)c2c3c(sc21)CCC3 | inactive: 12.7% | –
COc1ccc(CCNC(=O)CCCCn2c(=O)c3ccccc3n(Cc3cc(C)ccc3C)c2=O)cc1OC | inactive: -0.487% | –
CCOC(=O)c1cccnc1SCC(=O)N(CC)c1cccc(C)c1 | inactive: -1.16% | –
NC(=O)c1nc(Nc2ccccc2)sc1NC(=O)c1c(F)cccc1F | inactive: -12.2% | –
CCOC(=O)c1ccc(NC(=O)c2c(NCc3sccc3C)sc3c2CCC(C)C3)cc1 (stereo not given) | inactive: -6.96% | –
Cc1ccc(C)c(N2CCN(C(=O)CCc3nnc4n(C)c(=O)c5ccccc5n34)CC2)c1 | inactive: 18% | –
CN1CCN(C(CNC(=O)C(=O)Nc2ccc(Cl)cc2)c2cccnc2)CC1 (stereo not given) | inactive: -4.83% | –
CCOCCCNC(=O)c1c[nH]c2ccc(S(=O)(=O)N(C)c3ccc(Cl)cc3F)cc2c1=O | inactive: 2.34% | –
CCc1ccccc1NC(=O)c1oc(=O)c2ccccc2c1-c1ccccc1 | inactive: 7.44% | –
CC(C)(C)c1ccc(OCC(=O)Nc2ccc(C(=O)OC3CCCCC3)cc2)cc1 | inactive: -4.3% | –
COc1ccc(F)cc1S(=O)(=O)NCC(c1ccco1)S(=O)(=O)c1cccs1 (stereo not given) | – | active: 12.6 µM
CC(=O)N1c2ccccc2C(=O)C1N1CCN(c2ccc(Cl)cc2)CC1 (stereo not given) | inactive: 14.1% | –
COc1ccc(NCc2cc3cc4c(cc3n(CC(=O)Nc3ccc(C)cc3C)c2=O)OCO4)cc1 | inactive: 13.9% | –
CCOc1c(Br)cc(C2C=C(C(=O)O)Nc3ncnn32)cc1OC (stereo not given) | inactive: 5.08% | –
